Measurements reported in PubChem BioAssay AID360 (National Center for Advancing Translational Sciences (NCATS), 2006).
The whole screen tested about 48,000 compounds, of which about 550 (1.1%) were called active. Roughly 4% stayed inconclusive and do not appear here. No stated cut-off is given here; in the data, active means potency below about 15 µM; inconclusive means mostly about 16 µM to 33 µM; inactive means weaker than that. The list shows a part of the results.

biological target: Lysosomal acid glucosylceramidase (Homo sapiens) (UniProt P04062); experiment: Glucocerebrosidase; settings: purified enzyme, resorufin glucoside fluorescence (screen aimed at inhibitors), 20 min;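 further: the screen sought inhibitors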
Sequence of UniProt P04062 (P04062 whole entry, looked up): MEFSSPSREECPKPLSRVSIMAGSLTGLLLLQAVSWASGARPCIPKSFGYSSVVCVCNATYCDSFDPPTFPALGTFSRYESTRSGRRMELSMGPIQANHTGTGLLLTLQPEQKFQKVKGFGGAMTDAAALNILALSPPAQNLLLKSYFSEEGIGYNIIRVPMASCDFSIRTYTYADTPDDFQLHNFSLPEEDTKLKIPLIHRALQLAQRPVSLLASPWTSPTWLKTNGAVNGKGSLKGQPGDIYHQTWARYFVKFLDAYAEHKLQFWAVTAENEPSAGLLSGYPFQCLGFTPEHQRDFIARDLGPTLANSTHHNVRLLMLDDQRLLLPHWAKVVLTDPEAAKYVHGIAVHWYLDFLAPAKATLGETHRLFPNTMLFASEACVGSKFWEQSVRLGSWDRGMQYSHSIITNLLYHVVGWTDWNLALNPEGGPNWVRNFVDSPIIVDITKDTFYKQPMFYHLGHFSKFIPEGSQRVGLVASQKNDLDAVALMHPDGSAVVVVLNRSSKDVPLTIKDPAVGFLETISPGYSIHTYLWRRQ
Summary of the method: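 Compounds titrated against 0.2 nM normal enzyme, 30 uM resorufin beta-D-glucopyranoside substrate, citrate/phosphate buffer with taurocholate and tween-20, pH 5.9. Reaction ran 20 min at room temperature; fluorescence (Ex 548/Em 600) gave AC50.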
Potency means the concentration at half of the fitted maximal effect.

Potency, inactive:
COc1ccc(-c2ccc(CCC(=O)O)n2NC(=O)c2cccs2)cc1 > 76.9 µM
Cc1nnc(SCC(=O)Nc2cccc(C(F)(F)F)c2)n1Cc1ccco1 > 76.9 µM
CCN1C(=O)C2(C(C#N)=C(N)Oc3n[nH]c(C(C)C)c32)c2ccccc21 (stereo unspecified) > 76.9 µM
COc1ccccc1OCCNC(=O)c1ccccc1C > 76.9 µM
O=C(O)c1cc(-c2ccco2)nc2ccccc12 > 76.9 µM
O=S(=O)(NC1CCCc2ccccc21)c1cnc[nH]1 (stereo unspecified) > 76.9 µM
O=C(O)/C(=C1/OC(=O)c2ccccc21)c1ccccc1 > 76.9 µM
Cc1occc1-c1nnc(SCC(=O)c2c(N)n(Cc3ccccc3)c(=O)n(C)c2=O)n1C > 76.9 µM
O=C(Cn1ccc2ccccc2c1=O)N1CCN(c2cccc(Cl)c2)CC1 > 76.9 µM
CC1CC2(CC(C)(C(=O)CSc3n[nH]c(-c4ccccc4Cl)n3)OC2=O)C(=O)O1 (stereo unspecified)
COc1ccc2[nH]c3nc(SCc4nnc(-c5ccccc5)o4)nnc3c2c1
CC(C)(Oc1cccc2ccccc12)C(=O)O > 76.9 µM
CC(=O)N1CCN(CC(=O)Nc2c(Cl)cccc2Cl)CC1 > 76.9 µM
CCc1nnc(NC(=O)CCC(=O)N2CCN(Cc3ccc(Cl)cc3)CC2)s1 > 76.9 µM
O=C(CN1CCOCC1)Nc1ccccc1-c1ccccc1 > 76.9 µM
Cn1cc(CNC(=O)C2CCCCC2)cn1 > 76.9 µM
CCc1c(C(=O)N2CCOCC2)csc1C > 76.9 µM
Cc1occc1C(=O)Nc1ccc2c(c1)OCCO2 > 76.9 µM
O=C(CC1SC(=O)N(c2ccccc2)C1=O)Nc1ccccc1 (stereo unspecified) > 76.9 µM
CCC(C)(C)NC(=O)C(OC(=O)c1ccco1)c1ccccc1OC (stereo unspecified) > 76.9 µM
COc1ccccc1NC(=O)CN1CCN(CC(=O)Nc2cc(NC(C)=O)ccc2OC)CC1 > 76.9 µM
CCCC(=O)NC(C)C(c1cccs1)N1CCN(C)CC1 (stereo unspecified) > 76.9 µM
O=C(CS(=O)(=O)Cc1ccccc1)Nc1nc2c(s1)CCCC2 > 76.9 µM
CCS(=O)(=O)NCCc1ccc(OC)c(OC)c1 > 76.9 µM
COC(=O)c1nc2n(n1)C(c1ccc(OC)c(OC)c1)C(C(=O)OC1CCCCC1)=C(C)N2 (stereo unspecified) > 76.9 µM
Cc1c(/C(O)=C2/C(=O)C(=O)N(Cc3cccnc3)C2c2cccs2)cnn1-c1ccccc1 (stereo unspecified) > 76.9 µM
